The supplement of paper PMC10126150
Values marked as one replicate rest on one cluster of the flow cell; about a third of the high ones do not repeat.

Tested on: ATP
Experiment: switch fluorescence ratio, 500 uM ATP over buffer (Cy3 cluster intensity, sum of 5 cycles each) (fold (ratio)); higher = stronger signal-on switching upon ATP binding; sequences stand for … in TCGTCGGCAGCGTCAGATGTGTATAAGAGACAGTTTTTTTTTTTTTTTTTTTTTTTTT…TC
Settings: aptamer strand: ATP DNA aptamer (quencher-CACCTGGGGGAGTATTGCGGAGGAAGG + anchor), 100 nM annealed; ATP concentration: 500 uM; one replicate
Procedure, shortened: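 Values give the fluorescence ratio for each switch-domain sequence, averaged from per-cluster ratios of summed target-cycle to summed buffer-cycle Cy3 intensity. The Cy3-labelled switching-strand clusters sat on a modified Illumina MiSeq flow-cell, were annealed to 100 nM quencher-labelled ATP aptamer, and were imaged in selection buffer, then after 15 min with 500 uM ATP at 22 °C. Five cycles ran with NaOH stripping and re-annealing between them, and clusters outside 100-1000 RFU were excluded.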
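Note: ATP exposure 15 min at 22 °C before imaging.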

Sequence | switch fluorescence ratio
TGAAATATAC | 1.07
AGCTCACCTT | 1.11
GGTTCGACTT | 0.924
TGAGCAAATA | 1.64
GAGCCGATTT | 1.01
TTACGCGGCA | 1.02
ATCGGAGCAC | 2.39
ATCGTGATAA | 0.998
TCATGCCCCG | 1.02
ATCAGCGGAA | 0.995
GTCCAAAGA | 1.02
GTAAGTAGGG | 1.03
CAGAGTGACT | 1.03
AACAGGTGGT | 1.27
CCACTAAACC | 1.61
GTAAGTTAGT | 0.972
ATCCAGACCG | 1.02
TAACATCCTT | 1
GATGCCATGT | 0.972
ACCCGTATGC | 1.3
AGTAGCTTTC | 1.11
CGTACCCTGC | 0.938
ATTTTGCCAG | 0.965

Sequence | switch fluorescence ratio
CTTATGTTTT | 1.01
TCCCTCCGGG | 1.04
TGTGACTGG | 0.967
TGATTGAGTG | 0.984
ATGATTGACG | 1.08
CGCCTAAGAA | 0.957
TAACACTTGT | 1.02
GTCCGACATT | 1.03
GCTTGATATC | 1.01
TGCTTGGCGC | 0.97
ACAGTGGATA | 1.02
TGACTATTAG | 0.989
AGGTGACTGG | 1.05
TTAACAGGAG | 0.994
ATTCACGGCG | 0.976
ACCGAGGACA | 1.06
ACTCTCGCTC | 3.5
GGGCGCGGGC | 1.01
TTATTAGCCC | 1.02
GTCACAGGTT | 1.11
AAGTAGGGC | 1.03
AGGCTCACCA | 1.03
CGCCAGGCAA | 3.43

Sequence | switch fluorescence ratio
GAGGCACATT | 1.06
TCTTAATTGT | 0.984
CTGACAGCAC | 4.13
GAAACAGGTT | 0.985
TGACAATACG | 1.17
CCGAGCCCTA | 1.61
TGATGGAATT | 1
GGCTGACGTT | 1.03
GCACAGTCGC | 1.01
AATGATGGGC | 0.99
GCTGAATTGT | 1
AGCACCGTCA | 0.967
CGACCTACAC | 1.74
ATGGCGTAG | 0.985
TTCGGTACCA | 1.09
AAATCCTTCC | 1.72
GCTTCGCACT | 1.84
TCTCGTATT | 1.11
TTTTTCTAA | 1
AACAGTAGC | 1.06
AAAGTCTTG | 0.975
CGATCTGTAT | 0.981
AATCCGTGGG | 1.01

Sequence | switch fluorescence ratio
AGGTGGAAAT | 1.03
CATCTGACAC | 1.24
GTTAAATTGT | 1.06
GGCGTCAAAA | 1.1
GGCCGGTCCC | 1.05
CGAGAAGGCA | 0.967
CGTGGCGTGC | 0.951
GGAAGTGATT | 1.14
CGGCCGGGGG | 1.01
AACAAGTGG | 0.977
AAGCTGGGAT | 0.991
CAGCGTCCTG | 1.01
AGGCTCCTC | 1.07
TATGGTGGTC | 0.978
TAGGAGCATG | 1.02
ATAGGCACGT | 1.01
TCATGAGAAT | 0.986
CACACGCC | 1.08
TTCCCAGAAG | 1
AAACAAACGG | 1.1
TCATTTAATT | 1.01
GTTTGATACG | 1
TCGATGTAAG | 1.04

Sequence | switch fluorescence ratio
CTGCCCCCCG | 3.08
TTTCAGGGTA | 0.999
GGAACCACGC | 1.08
CGATCTCTTC | 1.07
CAAAGCCGC | 1.11
GGGACGAGCG | 1.23
AGGACACCGC | 1.12
ATATTAGTTC | 1.01
GGAGGGAGAT | 2.05
ATTTGTGGGT | 0.972
GTGTCCGGCC | 0.934
ATAGGCTTTG | 1.02
GGGCCGGATA | 1.03
CGGCTGTTGG | 0.984
ATGTGGGGG | 1.03
GCGGAAAGTG | 0.934
CGTTTCTAGC | 0.972
ATTGCTGGCC | 1
GACCGTTGTC | 0.984
TCCCACGCGC | 3.88
AGGACTGCGA | 1.03
AAGGTTCCCC | 0.983
GAATTAGCGA | 1.07

Sequence | switch fluorescence ratio
CCGGGATCTA | 1.04
ATACTGTGTG | 0.967
TACGCATATA | 2.51
GCACCGACGC | 2.81
CTTTTAGTTC | 1.05
CATAAATATG | 1
AATTATGACT | 1.54
CTAAGCCGCG | 0.938
AAGCTAAGGG | 0.992
ATGTTTTGCG | 0.967
AAAATAGAGA | 0.996
TCGGGGTCAC | 0.988
TGTATGCATG | 1.01
ATATAATGCG | 0.994
TTTTAACCAA | 1.04
TCATATGCGT | 0.982
AGTTTTTCTG | 0.94
CATGGGGTAC | 1.01
TCTTACATCC | 1.07
GATGCTTCCT | 1.23
TTCTGTACCG | 0.929
CAAATTATGC | 1.07
GGCCCTATTT | 0.939

Sequence | switch fluorescence ratio
CCGTGTGGTG | 1.1
GACTGCTAGT | 1.02
CTGTGCAACA | 1.02
GCCAATCCGT | 0.999
AAATGCACAG | 1.07
GCAGTGGAAC | 1.06
TTCTGCGCGG | 1.07
GAACAACAAT | 1.03
CATTTTGTCC | 0.998
GTGATCTCA | 0.993
ACGGTTCGTT | 0.95
CACAATACC | 2.13
CTATGCCGTG | 1.01
GCGGGCTTTG | 0.951
TGTAATTAGT | 1
TGATCACGTT | 1.01
AGAAAGTGGG | 0.975
ATCTAGCCGG | 1.02
GAAACGTCTA | 0.991
